Reference: ChEMBL document CHEMBL4888484, “Replenishing the malaria drug discovery pipeline: Screening and hit evaluation of the MMV Hit Generation Library 1 (HGL1) against asexual blood stage Plasmodium falciparum ,using a nano luciferase reporter read-out” (2022)
The campaign covered roughly 150,000 compounds. About 540 (0.36%) showed an effect of 50% or more. The list shows a part of the results.

What follows are molecules tested on Plasmodium falciparum (assay: Primary screen in NF54 nanoGlo assay, in single point, at 2uM, 72h; a lower Z score goes with more inhibition). Conditions: timepoint 72 hour.
Assay type: functional, Erythrocyte

SMILES	% Inhibition	Z score
Cc1c(C(=O)NCc2ccc(F)cc2)cnn1[C@H]1CCS(=O)(=O)C1	1%	-0.09
CCCS(=O)(=O)N1CCCN(C2=NS(=O)(=O)C(c3ccccc3)=C2C)CC1	-15%	1.69
C[C@@H](c1ccccn1)N(C)Cc1ccc2c(c1)OCO2	-5%	0.64
c1ccc2cc(-c3nc([C@H]4CCOC4)no3)ccc2c1	-11%	2.02
CC1(C)[C@@H](N(O)C(=O)Nc2cccc(C(F)(F)F)c2)N(c2cccc(C(F)(F)F)c2)C(=O)N1CCC1=CCCCC1	1%	-0.07
CC(C)C(CS(=O)(=O)N1CCC[C@H](n2ccnn2)CC1)C(C)C	-5%	1.16
Cc1nonc1C(=O)N1C[C@H](c2cnn(C)c2)C(C)(C)C1	-8%	1.18
O=C(Nc1cccc(Cl)c1)OCC1OCCO1	-16%	1.87
COc1cc(Cl)c(CN2CCCNC(=O)C2)c(OC)c1	-6%	0.58
CCC(=O)N1CCN(C(=O)c2ncccc2O)[C@H]2CS(=O)(=O)C[C@H]21	-1%	0.17
CC1CC(=O)NC2(/C=C/c3ccc(N(C)C)cc3)N1c1ccccc1C2(C)C (stereo not drawn)	-7%	0.84
OC[C@]1(F)CCN(c2nnc(-c3ccccn3)s2)C1	4%	-0.82
FC(F)(F)Cn1nnnc1N1CC2(CCOCC2)[C@@H]2CCC[C@@H]21	-5%	0.71
CCN1CCN(C(=O)COCc2cc(C)no2)[C@@H](C)C1	-15%	2.19
CN1C(=O)[C@H](OC(=O)COc2ccccc2)N(c2cccc(Cl)c2)C1=O	36%	-4.61
Cc1c(C)[n+](O)c([C@H](CC(=O)O)c2ccc(OC(F)(F)F)cc2)n1C	-13%	1.6
CCn1c(-c2cc(NC(=O)Cc3ccc(OC)cc3Cl)[nH]n2)cc2ccccc21	-10%	1.17
C=CCNC(=O)c1nnc(N2CCC(C)CC2)c2ccccc12	2%	-0.27
Cc1c2c(nn1-c1nc(-c3cccc(O)c3)cs1)CCCC2	-29%	3.38
O=C(COc1ccc2ccccc2c1Br)N1CCN(C(=O)[C@@H]2CCCO2)CC1	-1%	0.12
O=C(CNS(=O)(=O)c1ccccc1)NCC(=O)OCc1ccccc1F	-13%	1.76
COc1cc2c(cc1OC)CN(C(=O)c1cccnc1N(C)C)CC2	-3%	0.52
O=C(COC(c1ccccc1)c1ccccc1)Nc1nccs1	-9%	1.34
O=C1NCCCC[C@@H]1Nc1ncc(C(F)(F)F)cc1Cl	-9%	1.36
Cc1scc(C(=O)NC[C@H]2CCCO2)c1C	-8%	0.72
O=C(C1=CCCC1)N1CCC[C@H](Nc2cccc(F)c2)C1	9%	-1.25
FC1(F)CC[C@H](c2nc(-c3cnc4ccccn34)no2)C1	-10%	1.27

SMILES	% Inhibition	Z score
COCCCn1cc(-c2cccc(OC)n2)nn1	-11%	2.09
CN1CCCc2cc(C(=O)NCc3ccccc3)sc21	-6%	1.08
COc1ccc(-c2cc3cc(OC)c(OC)cc3c(-c3ccc(OC)cc3)n2)cc1	-2%	0.4
Cc1ccc([C@@H]2CN(Cc3nnnn3C3CC3)CCO2)c(C)c1	2%	-0.3
O=C(c1ccc(C(F)(F)F)cc1N1CCCC1)N1CC2COCC(C1)O2	-13%	1.68
C[C@@H](Cn1cncn1)NC(=O)c1ccc(Oc2ccccc2)o1	-2%	0.38
Cc1ccc(-n2c(C)c(CNCCc3ccccc3Cl)c(C(=O)O)c2C)cc1	-7%	1.33
Cc1cc(-c2ccccc2N(C)C)nc(N2CCOCC2)n1	6%	-1.12
Cc1cc(C)c(C(=O)NCCC2CCOC(C)C2)c(C)c1 (stereo not drawn)	0%	0.06
Cc1cc(-c2noc(C3C[C@H]4C[C@@H](N)[C@H]4C3)n2)ccc1-n1cccn1 (stereo partly drawn)	5%	-0.84
CCc1cc(C(=O)N2CCN(CC)CC2)on1	-14%	2.12
Cc1cnc(NCCN2C(=O)CCC2=O)nc1C	-10%	1.24
CC(C)CCN(C(=O)c1ccc2nccnc2n1)C1CCCC1	0%	0.05
COCC1CN(C(=O)NC2CC2c2ccccc2C(F)(F)F)CC(C)O1 (stereo not drawn)	-1%	0.24
C[C@H]1CN(c2ncnc3[nH]ncc23)CC2(CCC2)O1	-10%	1.32
CCn1cc(CN2Cc3nc(C)[nH]c(=O)c3C2)cc1C#N	5%	-0.85
CC(C)c1cccc2c1CCN(C(=O)C1C[C@H]3C[C@@H](N)[C@H]3C1)C2 (stereo partly drawn)	-9%	1.71
Cc1ccc(-n2cccn2)cc1NC(=O)N1CCCC1C1CCCO1 (stereo not drawn)	-8%	0.96
CCn1cnnc1CN(C)Cc1cc2n(n1)CCCN(C[C@H]1CCCO1)C2	-5%	0.88
CC(C)(C)OC(=O)N[C@@H]1CCCN(C(=O)c2cccc3[nH]ccc23)C1	-2%	0.25
CCCS(=O)(=O)N1CCC[C@H](n2c(C)cnc2C2CC2)C1	-6%	0.76
Cc1ccc(S(=O)(=O)N2CCC3(CC2)NC(=O)c2ccccc2N3)cc1C	-13%	1.28
Cc1cccc(N2CCN(C(=O)c3cc4ccccn4n3)CC2)c1C	-7%	0.95
Cc1ccc([C@H]2NS(=O)(=O)NC2=N)cc1	-5%	0.98
CCCN1CCN(c2ncc(F)c(NC)n2)C[C@@H](O)C1	-5%	0.85
O=C(Nc1ccon1)c1cc(S(=O)(=O)N2CCCCC2)ccc1F	-3%	0.31
CC(C)(C)NC(=O)Cn1nnc(-c2ccc3c(c2)OCO3)n1	3%	-0.3
